# Out of some 360,000 compounds screened, about 6,000 (1.7%) were called active. The shares of active, inactive and inconclusive entries below differ from those in the screen. The call rests on the fitted dose curve; in most records, active means well fitted cell-killing curve with a large enough effect; inconclusive means small, poorly fitted or top-dose-only effect, or effect the other way; inactive means flat fitted curve, though single readings scatter. No potency is given beside an inconclusive call; the fits are too rough.
# Test: qHTS for induction of synthetic lethality in tumor cells producing 2HG: qHTS for the HT-1080-NT fibrosarcoma cell line;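 further: NT is the 2HG producing partner of a matched IDH1 knockdown line; nearly all actives have a fitted effect of over 55% in size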;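 on activity, negative = less viability: 0% = DMSO-treated cells and -100% = media-only wells without cells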
# Settings: HT-1080-NT fibrosarcoma viability, CellTiter-Glo ATP luminescence, 48 h; activity, negative = less viability: at 46.1 µM (top of the series) unless noted
# How it was run: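 HT-1080-NT fibrosarcoma cells (2HG-overproducing), 750 cells/well in RPMI with 5% FBS, dosed after 2 h and incubated 48 h at 37C. CellTiter-Glo luminescence normalized to DMSO and no-cell wells; concentration-response curves fitted and classed.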
# Potency means the concentration at half of the fitted maximal effect; tags describe the fitted curve by direction and shape.
SMILES,"activity, negative = less viability",Potency
O=[N+]([O-])c1cccc(-c2cc3cccc[n+]3cc2-c2cccc([N+](=O)[O-])c2)c1,inactive: 0.944%,–
CC(OC(=O)c1cc(Br)ccc1O)C(=O)Nc1ccc(S(=O)(=O)N2CCCC2)cc1 (centres undefined),–,"inconclusive [cytotoxic, single point]"
COc1cc(/C=C(\C#N)c2nc3ccccc3[nH]2)cc(Br)c1OCc1ccccc1,–,"inconclusive [cytotoxic, single point]"
O=C(Nc1cccs1)Nc1ccccc1Br,inactive: 6.35%,–
CCN(CC)S(=O)(=O)c1cccc(C(=O)OCc2cc(=O)n3nc(C)sc3n2)c1,–,"inconclusive [cytotoxic, single point]"
c1csc(-c2csc3ncnc(NCCCN4CCOCC4)c23)c1,–,"inconclusive [cytotoxic, single point]"
Oc1ccc(/C=N/N(Cc2ccccc2)c2ccccc2)cc1,–,active: 20.6 µM
CCc1nnc(NC(=O)CSc2nnc(CNc3ccc(C)cc3)n2C)s1,inactive: 13.6%,–
CCCCNS(=O)(=O)c1ccc2nc(-c3cccnc3)cc(C(=O)NC(C)C)c2c1,–,"inconclusive [cytotoxic, single point]"
O=C(O)/C(=C\c1c(C(=O)O)[nH]c2cc(Cl)cc(Cl)c12)c1ccccc1,inactive: -1.87%,–
COc1ccc(/C(C)=N/Nc2nc3ccccc3nc2C)cc1OC,inactive: -18.6%,–
CC[N+]1=C(C)C(C)(C)c2cc(C)ccc21,–,"inconclusive [cytotoxic, partial curve]"
CCOC(=O)N1CCN(S(=O)(=O)c2ccc(C)cc2)CC1,inactive: 4.39%,–
CCN(CC)S(=O)(=O)c1cc(NC(=O)Cc2n[nH]c(=O)c3ccccc23)ccc1C,–,"inconclusive [cytotoxic, partial curve]"
O=C(CCC(=O)N1CCCC1)Nc1ccc([N+](=O)[O-])cc1,–,"inconclusive [cytotoxic, partial curve, poor fit]"
COc1ccc(C2CN=NC23CCCc2ccccc2C3=O)cc1 (centres undefined),–,"inconclusive [cytotoxic, single point]"
COc1cc(Br)c(C(=O)c2nccc3cc(OC)c(OC)cc23)cc1OC,–,"inconclusive [cytotoxic, partial curve]"
FC(F)(F)c1cccc(-c2cc3nc(NCCCn4ccnc4)ccn3n2)c1,–,"inconclusive [cytotoxic, single point]"
COC(=O)C1=CN(Cc2ccc(OC)c(OC)c2)C=C(C(=O)OC)C1c1cccc(F)c1,inactive: -2.38%,–
CN(C)c1cccc(CNC(=O)c2ccc3nc([C@@H]4O[C@H](CO)[C@H](O)[C@H](O)[C@H]4O)[nH]c3c2)c1,–,"inconclusive [rising, single point]"
COc1ccc(C(C(=O)NC(C)(C)C)N(C(=O)CNC(=O)c2cccs2)c2ccc(C(C)C)cc2)cc1OC (centres undefined),–,"inconclusive [cytotoxic, single point]"
CN1C(=O)C(CC(=O)Nc2ccc(F)cc2)N(NC(=O)c2cccc(F)c2)C1=S (centres undefined),inactive: 7.24%,–
COc1ccc(NC(=O)COC(=O)C(NC(=O)c2ccc(C)cc2)C(C)C)cn1 (centres undefined),inactive: 4.06%,–

SMILES,"activity, negative = less viability",Potency
O=C(Nc1ccc(N2CCN(C(=O)c3ccccc3)CC2)cc1)c1cccs1,inactive: -4.7%,–
COc1cc(/C=N/NC(=O)CCn2c3ccccc3c3ccccc32)ccc1O,–,"inconclusive [cytotoxic, single point]"
CC(C)(C)c1cc(C(=O)NCc2cc(F)cc3c2OCOC3)n(Cc2ccccc2)n1,–,"inconclusive [cytotoxic, single point]"
O=C(COC(=O)c1ccc(F)cc1F)Nc1ncccn1,–,"inconclusive [rising, single point]"
Cc1cccc(-n2c(-c3ccoc3C)n[nH]c2=S)c1,–,"inconclusive [rising, full curve]"
CCOC(=O)C1=C(C)N(C[C@@H]2CC[C@@H](Cc3ccc(-c4ccccc4)cc3)O2)C(=O)NC1c1ccc(-c2ccccc2)cc1 (some centres undefined),inactive: 3.53%,–
NC(=O)CC(NC(=O)c1ccc(Br)cc1)c1ccc(N2CCCCCCC2)c([N+](=O)[O-])c1 (centres undefined),–,"inconclusive [cytotoxic, partial curve, poor fit]"
CC(C(=O)Nc1cc([N+](=O)[O-])ccc1Cl)N1CCN(c2ccccc2O)CC1 (centres undefined),–,"inconclusive [cytotoxic, single point]"
CCC(C)c1ccc(NC(=O)C2CCN(c3ccc(C(F)(F)F)cn3)CC2)cc1 (centres undefined),–,"inconclusive [cytotoxic, single point]"
O=C(COc1ccccc1-c1ccccc1)N/N=C/c1ccc2ccccc2c1,–,"inconclusive [cytotoxic, full curve, poor fit]"
CCOc1ccc(-n2c(SCC(=O)Nc3ccc(CC)cc3)nc3n[nH]c(C)c3c2=N)cc1,–,"inconclusive [cytotoxic, full curve]"
Cc1ccc(Nc2nc(=O)c3cc([N+](=O)[O-])ccc3s2)cc1,inactive: 7.69%,–
Cc1ccc(C)c(Cn2nc(-c3ccccc3)ccc2=O)c1,–,"inconclusive [cytotoxic, single point]"
Cc1c(N2C(=O)/C(=C\C3CC=CCC3)SC2=S)c(=O)n(-c2ccccc2)n1C (centres undefined),–,"inconclusive [cytotoxic, single point]"
COc1cc2ccccc2cc1C(=O)N(CCN(C)C)c1nc2c(C)cccc2s1,–,"inconclusive [cytotoxic, single point]"
CCN(CC)CCNc1ncnc2c1sc1nc(N3CCCC3)c3c(c12)CC(C)(C)OC3,–,active: 16.4 µM
O=C(N/N=C/c1ccccn1)c1cc(-c2ccc(Cl)s2)[nH]n1,–,"inconclusive [cytotoxic, single point]"
C=C(C)C1Cc2c(C)nn(-c3cccc4ccccc34)c2C1 (centres undefined),–,"inconclusive [cytotoxic, single point]"
Cn1c(=O)n(C)c2cc(S(=O)(=O)Nc3ccccc3O)ccc21,inactive: 18.7%,–
O=C(Nc1ccc(F)cc1)/C(Cl)=C/c1ccccc1,inactive: 0.515%,–
Cc1nc(-c2ccc(C(=O)Nc3ccccc3F)cc2)cs1,–,active: 11.6 µM
O=C(Nc1ccc(Br)cc1)c1ccc(N2C(=O)C3CC=C(Cl)CC3C2=O)cc1 (centres undefined),–,"inconclusive [cytotoxic, partial curve]"
COc1ccccc1-c1cc(C(=O)Nc2cc(C)on2)no1,inactive: -15.9%,–

SMILES,"activity, negative = less viability",Potency
O=C(N/N=C/c1cccc(O)c1)c1cc(C2CC2)nc2ccccc12,inactive: -29.3%,–
COc1ccc(CN(C)C(=O)c2cc(-c3ccccc3)nc3ccc(C)cc23)c(OC)c1,–,"inconclusive [cytotoxic, single point]"
COc1cc(C2(c3ccc(O)c(OC)c3)C(=O)Nc3c(C)cc(Br)cc32)ccc1O,–,"inconclusive [cytotoxic, single point]"
CC(C)(C)c1ccc2cc(F)cc(F)c2n1,–,"inconclusive [rising, partial curve, poor fit]"
Cc1cc(N/N=C2\CC(C)CC(C)(C)C2)nc2ccccc12 (centres undefined),inactive: 8.04%,–
COCCNC(=O)c1onc(CSc2cccc(OC)c2)c1C(=O)NCCOC,–,"inconclusive [rising, single point]"
CCc1ccccc1NC(=S)N(CCN1CCOCC1)Cc1ccccc1F,inactive: -4.39%,–
CC(=O)Nc1ccc(NS(=O)(=O)c2cccc3nonc23)cc1,inactive: -0.777%,–
CC1(C(=O)Nc2ccc(F)c(Cl)c2)Cc2c(-c3ccccc3)ccnc2O1 (centres undefined),–,"inconclusive [cytotoxic, single point]"
O=[N+]([O-])c1cc(C(F)(F)F)ccc1NCCCCNS(=O)(=O)c1ccc(Cl)cc1,–,"inconclusive [cytotoxic, single point]"
COCCN(C(=O)c1snc(C(N)=O)c1N)C(C(=O)NC1CCCCC1)c1ccc(OC)c(OC)c1 (centres undefined),inactive: -0.316%,–
Cc1ccc(CNC(=O)CNC(=S)N(Cc2ccccc2)Cc2ccccc2F)cc1,–,"inconclusive [cytotoxic, single point]"
COC(=O)c1ccc2nc(-c3ccccc3)c(Cc3ccsc3)n2c1,–,"inconclusive [cytotoxic, single point]"
CC(C)c1cccc(-c2csc(C(O)c3ccccc3)n2)c1 (centres undefined),–,"inconclusive [cytotoxic, single point]"
O=C(CSc1nnc(-c2ccccn2)n1-c1ccccc1)Nc1ccc2c(c1)OCO2,–,"inconclusive [cytotoxic, single point]"
Cc1ccc(C(NC(=O)C2CCN(Cc3ccc(Cl)c(Cl)c3)CC2)c2ccccn2)cc1 (centres undefined),–,"inconclusive [cytotoxic, partial curve, poor fit]"
COc1ccc(C2=NOC(C(=O)NCc3cccs3)C2)cc1 (centres undefined),–,"inconclusive [cytotoxic, partial curve]"
NC(=O)CSc1nc(-c2ccccc2)c(-c2ccccc2)o1,inconclusive: -31.1% [cytotoxic],–
C/C(=N\Nc1ncc(Cl)cc1Cl)c1ccc(N2CCOCC2)cc1,–,"inconclusive [cytotoxic, single point]"
COc1ccc(/C=N/Nc2ccc([N+](=O)[O-])cc2)cc1Cn1cc([N+](=O)[O-])cn1,–,"inconclusive [cytotoxic, single point]"
Cc1cc(Br)cnc1NC(=S)Nc1ccc(F)cc1F,inactive: -5.41%,–
CCC(=O)Nc1ccc(NC(=O)CSc2nnc(-c3ccco3)n2CC)cc1,inactive: 10.6%,–
CC(=O)c1cccc(NC(=O)C2Cc3c(-c4cccc(F)c4)ccnc3O2)c1 (centres undefined),–,"inconclusive [cytotoxic, single point]"

# From PubChem BioAssay AID686970 (National Center for Advancing Translational Sciences (NCATS), 2013)
